PMC4336329 (PLoS ONE, 2015)
In all, about 310,000 compounds went through this assay and about 14,000 (4.5%) showed an effect of 50% or more. The effect is printed as a negative number. The list shows a part of the results.

Target: human ether-à-go-go-related gene (hERG) potassium channel (human, UniProt Q12809)
Experiment: primary screen, population patch clamp on CHO cells stably expressing hERG
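Note: peak tail current of the secondary pulse compared with the same well before compound.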

Chain of human ether-à-go-go-related gene (hERG) potassium channel (Q12809 whole entry, looked up): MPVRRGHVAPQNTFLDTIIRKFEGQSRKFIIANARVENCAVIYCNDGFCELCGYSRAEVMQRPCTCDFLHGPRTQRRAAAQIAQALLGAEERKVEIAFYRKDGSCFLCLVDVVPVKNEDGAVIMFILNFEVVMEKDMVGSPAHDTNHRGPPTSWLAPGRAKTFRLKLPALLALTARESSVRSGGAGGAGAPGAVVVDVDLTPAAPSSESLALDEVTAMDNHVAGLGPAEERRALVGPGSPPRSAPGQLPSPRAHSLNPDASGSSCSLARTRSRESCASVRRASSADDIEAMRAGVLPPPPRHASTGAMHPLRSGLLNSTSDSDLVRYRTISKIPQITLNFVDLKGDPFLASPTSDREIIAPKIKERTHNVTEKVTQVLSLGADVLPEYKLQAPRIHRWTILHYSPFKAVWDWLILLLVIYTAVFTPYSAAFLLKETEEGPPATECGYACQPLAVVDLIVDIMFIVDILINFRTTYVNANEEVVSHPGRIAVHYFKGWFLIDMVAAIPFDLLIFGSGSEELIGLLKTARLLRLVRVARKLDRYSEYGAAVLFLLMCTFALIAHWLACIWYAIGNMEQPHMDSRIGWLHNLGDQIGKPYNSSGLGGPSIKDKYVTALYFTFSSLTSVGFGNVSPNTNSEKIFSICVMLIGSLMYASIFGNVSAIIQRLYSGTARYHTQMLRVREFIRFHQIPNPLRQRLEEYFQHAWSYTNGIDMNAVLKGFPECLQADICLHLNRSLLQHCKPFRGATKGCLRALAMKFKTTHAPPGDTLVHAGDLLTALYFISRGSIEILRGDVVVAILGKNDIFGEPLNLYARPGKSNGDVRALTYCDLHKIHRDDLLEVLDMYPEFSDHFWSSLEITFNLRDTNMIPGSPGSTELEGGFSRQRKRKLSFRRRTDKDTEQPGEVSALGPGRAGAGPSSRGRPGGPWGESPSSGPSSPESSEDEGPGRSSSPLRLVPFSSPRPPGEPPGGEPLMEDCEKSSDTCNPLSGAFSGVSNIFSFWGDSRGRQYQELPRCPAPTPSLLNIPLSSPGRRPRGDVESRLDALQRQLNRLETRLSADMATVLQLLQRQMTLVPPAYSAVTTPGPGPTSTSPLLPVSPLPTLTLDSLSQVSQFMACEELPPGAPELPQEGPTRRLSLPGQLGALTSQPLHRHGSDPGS

First: O=C(NC(=O)c1ccc(F)cc1)Nc1nc(-c2cccs2)cc(C(F)(F)F)n1
Second: N#Cc1ccsc1NC(=O)CSc1nnnn1-c1ccc(O)cc1
The “hERG current change (%, negative = inhibition) at 10uM” value of the first is higher: 12.2% for the first, -6.98% for the second.

Compared with `COc1ccc(NC(=O)C(=O)NNC(=O)c2ccc(Cl)cc2Cl)cc1`, `COc1ccc(NC(=O)C2=CC(c3ccc(OC)c(OC)c3)=NS(=O)(=O)N2C)cc1` is lower in “hERG current change (%, negative = inhibition) at 10uM” value: 2.27% for the first, -4% for the second.

Going from `Cc1ccc(C(=O)Nc2ccc(S(=O)(=O)N3CCCC3)cc2)s1` to `O=S(=O)(c1ccc(Oc2ccc3oc4ccccc4c3c2)nc1)N1CCCC1`, the “hERG current change (%, negative = inhibition) at 10uM” value falls from 12.8% to -4.38%.

First: C/C=C/C=N/Nc1nc(-c2ccc([N+](=O)[O-])cc2)cs1
Second: COc1ccc(-c2csc(N3C(=N)SCC3=O)n2)cc1
The “hERG current change (%, negative = inhibition) at 10uM” value of the first is higher: -7.25% for the first, -26.8% for the second.

First: Cc1cccc(CN2C(=O)N/C(=C/c3cc(C)n(-c4ccccn4)c3C)C2=O)c1
Second: O=C(CCCN1C(=O)c2cccnc2C1=O)N1CC(=O)N(CCc2ccccc2)C(=O)C1
The “hERG current change (%, negative = inhibition) at 10uM” value of the first is higher: 8.39% for the first, -9.44% for the second.

Going from `Cc1cccc(S(=O)(=O)NCCC(=O)OC(C)C(=O)NC(=O)NC2CCCCC2)c1` (stereo not drawn) to `COc1ccccc1CCC(=O)OCC(=O)NC1CC1`, the “hERG current change (%, negative = inhibition) at 10uM” value rises from -20.8% to 7.29%.

Compared with `c1coc(-c2cc(C3CCNCC3)[nH]n2)c1`, `O=C1CC(N2CCC(O)CC2)C(=O)N1c1ccc(Br)cc1` (stereo not drawn) is lower in “hERG current change (%, negative = inhibition) at 10uM” value: 15.5% for the first, -6.28% for the second.

First: CC(=O)c1c(C)[nH]c(C(=O)CSc2nnc(C3CCCCC3)n2N)c1C
Second: O=C(CSc1nc(N2CCCCC2)nc(N2CCCCC2)n1)c1ccccc1
The “hERG current change (%, negative = inhibition) at 10uM” value of the first is higher: -1.29% for the first, -2.16% for the second.

First: CCOc1ccccc1C(=O)N[C@H](C(=O)NCc1ccccc1)C(C)C
Second: O=C(COC(=O)c1ccc(Br)cc1)NCc1ccccc1
The “hERG current change (%, negative = inhibition) at 10uM” value of the first is lower: 12.7% for the first, 13.8% for the second.

Compared with `CC(NC(=O)COC(=O)c1ccc(N(C)C)cc1)c1ccccc1` (stereo not drawn), `CCOc1ccc(S(=O)(=O)N(C)c2ccc(OCC(=O)NCc3ccc(C(=O)OC)cc3)cc2)cc1` is lower in “hERG current change (%, negative = inhibition) at 10uM” value: 3.44% for the first, -23.9% for the second.

First: COc1ccc(OC)c(-c2nnc(NC(=O)C(C)Sc3nncn3C)s2)c1 (stereo not drawn)
Second: CCOc1ccc2nc(NC(=O)CSc3cn[nH]n3)sc2c1
The “hERG current change (%, negative = inhibition) at 10uM” value of the first is higher: 3.38% for the first, -2.2% for the second.

First: COC(=O)CNC(=O)c1ccc(C)s1
Second: COC(=O)CNC(=O)C(C)(C)Oc1ccc(Cl)cc1
The “hERG current change (%, negative = inhibition) at 10uM” value of the first is higher: -0.614% for the first, -1.56% for the second.

First: C/C(=N\NC(=O)OC(C)(C)C)c1cccc([N+](=O)[O-])c1
Second: CC/C(=N/NC(=O)CNc1ccc(Cl)cc1C)c1ccccc1
The “hERG current change (%, negative = inhibition) at 10uM” value of the first is lower: -11.3% for the first, 8.15% for the second.

First: CN(c1ccccc1)S(=O)(=O)c1cc(Cl)ccc1Cl
Second: CN(CC(=O)N1CCN(Cc2ccccc2)CC1)S(=O)(=O)c1ccc(Br)cc1
The “hERG current change (%, negative = inhibition) at 10uM” value of the first is higher: -17.7% for the first, -40.2% for the second.

Compared with `CC(=O)c1sc(Nc2nc3ccc(F)cc3s2)nc1C`, `COC(=O)c1cc2occc2n1Cc1nc(-c2ccccc2F)oc1C` is higher in “hERG current change (%, negative = inhibition) at 10uM” value: 8.71% for the first, 8.86% for the second.

First: NCC(=O)N1CCC(C(=O)N[C@@H](Cc2c[nH]c3ccccc23)C(=O)O)CC1
Second: Cc1cc(C(=O)N2CCN(S(C)(=O)=O)CC2)sc1-c1ccccc1
The “hERG current change (%, negative = inhibition) at 10uM” value of the first is higher: 23.6% for the first, 9.81% for the second.

Compared with `Oc1ccc(C2=NN(c3ccccc3)C(c3ccc(F)cc3)C2)cc1` (stereo not drawn), `COC(=O)[C@@H]1C[C@@]2(O)[C@H](O)[C@H](O)[C@H](O)C[C@H]2N1Cc1ccc(-c2ccccc2)cc1` is higher in “hERG current change (%, negative = inhibition) at 10uM” value: 3.99% for the first, 14.5% for the second.

Compared with `Cc1cc2cc(CNC(=O)c3ccc4c(c3)OCO4)ccc2n1C`, `Cc1cc(C(=O)O)ccc1-n1c(C)ccc1C` is lower in “hERG current change (%, negative = inhibition) at 10uM” value: 12.9% for the first, 4.49% for the second.

First: COCCc1nnc(NC(=O)Cc2ccccc2)s1
Second: CC(Cc1ccccc1)NC(N)=O (stereo not drawn)
The “hERG current change (%, negative = inhibition) at 10uM” value of the first is lower: 4.67% for the first, 17.5% for the second.

Compared with `Cl.OCCNCc1cccc(Br)c1`, `CCCCn1c(CCCNC(=O)c2ccco2)nc2ccccc21` is lower in “hERG current change (%, negative = inhibition) at 10uM” value: -1.31% for the first, -40.5% for the second.

First: COC(=O)Nc1ncc(CN2C(=O)c3ccccc3C2=O)s1
Second: CCCCNC(=O)CSc1nc2ccccc2c(=O)n1CCNC(C)=O
The “hERG current change (%, negative = inhibition) at 10uM” value of the first is lower: -23% for the first, -12.3% for the second.

Compared with `CC1CCN(C(=O)C2CCCN2S(=O)(=O)c2ccc(Cl)cc2)CC1` (stereo not drawn), `O=C(C1CCN(C2CCN(C/C(Cl)=C/c3ccccc3)CC2)CC1)N1CCOCC1` is lower in “hERG current change (%, negative = inhibition) at 10uM” value: 8.47% for the first, -64.1% for the second.

Going from `CC(C)(O)C#Cc1ccc(CN2CCN(Cc3ccsc3)C(CCO)C2)cc1` (stereo not drawn) to `CN(C)c1ccc(CNn2cnnc2SCC(=O)NC(C)(C)C)cc1`, the “hERG current change (%, negative = inhibition) at 10uM” value rises from -21.6% to 23.4%.

Going from `O=C(O)C(F)(F)F.O=C1C(Cc2ccccc2)Nc2ncnc(N3CCc4ccccc4C3)c2N1Cc1ccc(Cl)cc1` (stereo not drawn) to `Cc1cccc2cc(C(c3nnnn3Cc3ccccc3)N3CCN(c4ccccc4)CC3)c(=O)[nH]c12` (stereo not drawn), the “hERG current change (%, negative = inhibition) at 10uM” value falls from 10% to -29.1%.

Compared with `CCOC(=O)c1ccc(NC(=O)C23CCC(C)(C(=O)O2)C3(C)C)cc1` (stereo not drawn), `COc1ccc(C2(c3ccc(OC)cc3)NC(=O)N(CC(=O)Nc3ccc(N4CCOCC4)cc3)C2=O)cc1` is higher in “hERG current change (%, negative = inhibition) at 10uM” value: -6.49% for the first, -3.27% for the second.

Going from `CN(CCCCCCN(C)Cc1ccccc1O)Cc1ccccc1O.O=C(O)C(=O)O` to `CCCCN1CC2([N+](=O)[O-])C=CC(=O)C([N+](=O)[O-])(C1)C2CC(=O)c1ccccc1` (stereo not drawn), the “hERG current change (%, negative = inhibition) at 10uM” value rises from 5.09% to 7.36%.

Compared with `C=CCSc1nnc(-c2cc3c(C(F)(F)F)nn(C)c3s2)n1C`, `O=C(Cn1nc(C(F)(F)F)c2c1CCCC2)N1CCOCC1` is higher in “hERG current change (%, negative = inhibition) at 10uM” value: -3.85% for the first, 20.1% for the second.

Compared with `COc1cc(/C=C2/CCCC(C(=O)C(F)(F)F)=C2O)ccc1O`, `O=C(CNC(=O)c1ccc(Cl)c([N+](=O)[O-])c1)NCC1CCCO1` (stereo not drawn) is higher in “hERG current change (%, negative = inhibition) at 10uM” value: 10.4% for the first, 13.7% for the second.

`ON(Cc1c(F)cccc1Cl)Cc1c(F)cccc1Cl` was tested, and the “hERG current change (%, negative = inhibition) at 10uM” value was 5.68%.
